# In PubChem BioAssay AID1345082 (National Center for Advancing Translational Sciences (NCATS), 2018):
# Among all 94,000 compounds or so, about 4,000 (4.3%) were called active. Inconclusive means that the source gave no clear call. Such entries were picked first, then a sample of the others. Calls follow the shape of the dose curve; as a rule, active = well fitted inhibition curve with a large enough effect; inconclusive = small, poorly fitted or top-dose-only effect; inactive = no such curve, though single readings can be large or run the other way. Potencies of inconclusive entries are doubtful fits and often do not repeat.
# Assay: Cytotoxic Profiling in NIH 3T3 Cell Line of Diverse Libraries Using Quantitative High-Throughput Screening; also: nearly all actives have a fitted effect of over 55% in size
# Conditions: NIH 3T3 viability, CellTiter-Glo ATP luminescence, 48-72 h; activity change, negative = cytotoxicity: at 96.7 µM (top of the series) unless noted; series mostly up to 96.7 µM
# In short: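 Viability of NIH 3T3 cells after 48 or 72 hr compound treatment at 37 °C was assessed by CellTiter-Glo, with luminescence imaged following a 10 min room-temperature step.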
# % is scaled to controls: 0 for no effect and ±100 for the full control effect; potency is read from the fitted curve at half-maximal effect; tags tell the direction and shape of the fitted curve.
SMILES,"activity change, negative = cytotoxicity",Potency,outcome
Cn1nccc1OCc1cn2c(=O)n(C)cc(-c3ccccc3F)c2n1,inactive: -29.8% [at 138 µM],–,–
Cc1cccc(CN2CCc3c(cc(C(=O)O)n3C)C2)c1,inactive: -26.6%,–,–
Cn1cccc1C(=O)N1CC[C@H](NC(=O)Nc2ccc(F)cc2F)[C@H]1C(=O)N[C@H](Cc1ccccc1)C(N)=O,inactive: -6.83%,–,–
O=C(NCCC1=CCCCC1)c1ccc(Cn2ccn3nc4c(c3c2=O)CCCC4)cc1,–,"inconclusive: 28.2 µM [inhibitor, partial curve, poor fit]",–
C=CCNC(=O)CCc1c(C)nn(-c2ccc(F)cc2)c1Oc1ccccc1F,–,"inconclusive: 50.1 µM [inhibitor, partial curve, poor fit]",–
Cc1ccc(S(=O)(=O)N2C[C@@H](F)C[C@H]2C(=O)N2CCc3ccccc3C2)c(C)c1,–,"inconclusive: 50.1 µM [inhibitor, partial curve, poor fit]",–
O=C(CCc1nc2ccccc2s1)N1CCCC1c1nc(CCOCC2CC2)no1 (centres undefined),inactive: -3.91%,–,–
O=C1N(Cc2ccccc2F)CCOC12CCN(Cc1ccc(F)cc1F)CC2,–,"inconclusive: 63.1 µM [inhibitor, partial curve, poor fit]",–
CCc1noc(-c2cn(C3CCN(C(=O)C(C)Oc4ccc(Cl)cc4)CC3)nn2)n1 (centres undefined),–,"inconclusive: 8.91 µM [inhibitor, full curve, poor fit]",–
Cc1ccc(-c2nnc(C3CN(C(=O)C4CCOCC4)CC34CCOCC4)o2)cc1 (centres undefined),inactive: -22.5%,–,–
Cc1onc(-c2cnn(C)c2NCc2ccc(C#N)cc2)c1C(=O)Nc1ccccc1,–,"inconclusive: 20 µM [inhibitor, partial curve, poor fit]",–
O=c1cc(-c2cccnc2)oc2c(NCC3CCOCC3)nccc12,–,"inconclusive: 31.6 µM [inhibitor, partial curve, poor fit]",–
CCCc1nc(C)n2ccn(Cc3cccc(C#N)c3)c(=O)c12,inactive: -8.18%,–,–
Cc1ccc(C(=O)NC2CCN(c3cc(-c4cccs4)[nH]n3)CC2)c(C)c1,–,active: 31.6 µM,–
COc1ccc(-c2noc(-c3nnn4c3COC(c3ccc(F)cc3)C4)n2)cc1 (centres undefined),inactive: -4.85%,–,–
COc1ccc(-c2ccccc2C(=O)N2CCC(NC(=O)c3ccccc3Cl)CC2)nn1,inactive: -19.5%,–,–
CCc1ccc(C(=O)N2CCc3[nH]nc(C(=O)NC4CCN(C)CC4)c3C2)cc1,inactive: -22.8%,–,–
CC1(CCCCN2CCOCC2)COc2ccc(C(=O)Nc3ccccc3)cc2N1 (centres undefined),–,"inconclusive: 63.1 µM [inhibitor, partial curve, poor fit]",–
COc1ccccc1-c1ccc(C(=O)N2CCC(NC(=O)NC(C)C)CC2)cc1,–,"inconclusive: 50.1 µM [inhibitor, partial curve, poor fit]",–
O=C1Nc2ccc(-c3ccccc3F)cc2C(=O)N2C[C@H](O)C[C@@H]12,inactive: -13.5% [at 138 µM],–,–
Cn1ncc2c(C(=O)NCc3ccc(Cl)cc3)cc(-c3ccccc3C(F)(F)F)nc21,–,"inconclusive: 20 µM [inhibitor, full curve, poor fit]",–
Cc1cc(NC(=O)c2ccc3c(c2)N(C)C2CCCCN2C3=O)ccc1Br (centres undefined),inactive: -24.9%,–,–

SMILES,"activity change, negative = cytotoxicity",Potency,outcome
COC(=O)NC1CCN(C(=O)c2cccc(-c3ccc(OC)nn3)c2)CC1,inactive: -14.1% [at 138 µM],–,–
COc1ccc(NC(=O)C2CCc3nnc(CN[S+](=O)([O-])c4ccccc4Cl)n32)cc1 (centres undefined),inactive: -13.4%,–,–
COCC(=O)N1CC(CNc2ccccc2)C2(C1)CN(c1ccccc1)C2 (centres undefined),inactive: -13.8% [at 138 µM],–,–
CC(C)(C)C(=O)NC1CCCN(c2ccc3nnc(-c4ccccc4)n3n2)C1 (centres undefined),–,"inconclusive: 35.5 µM [inhibitor, partial curve, poor fit]",–
O=C(Nc1ccc([C@@H](O)[C@H]2COCC(=O)N2Cc2ccccn2)cc1)C1CC1,inactive: -4.99% [at 138 µM],–,–
O=C(c1ccccc1F)N1CC2(Cc3ccccc3NC2=O)C1,inactive: -5.7%,–,–
CCc1ccccc1NC(=O)c1cc2c(N3CCSCC3)nc(C)cn2n1,–,"inconclusive: 44.7 µM [inhibitor, partial curve, poor fit]",–
COCCOC1CCOC2(CCN(C(=O)Cc3ccccc3)CC2)C1 (centres undefined),–,–,inactive
CCNC(=O)N1CCC(Cc2ccc(C(=O)Nc3cccc(F)c3)cc2)CC1,–,"inconclusive: 44.7 µM [inhibitor, partial curve, poor fit]",–
COc1ccc(-c2onc(C)c2C(=O)NCc2cccc(Cl)c2)cc1,–,"inconclusive: 44.7 µM [inhibitor, partial curve, poor fit]",–
O=C(c1nnc(CNC2CCOCC2)n1Cc1ccccc1)N1CCC[C@@H]1c1ccc(Br)cc1,–,"inconclusive: 44.7 µM [inhibitor, partial curve, poor fit]",–
CCOc1ccccc1NC(=O)N1CCCN(S(=O)(=O)c2ccccc2)CCC(=O)NCC1,inactive: -10.8%,–,–
COCCn1c(=O)c(C(=O)N2CCN(C(=O)NC3CCCC3)CC2)nc2cccnc21,inactive: -7.51%,–,–
COc1ccc(C(=O)N2CCC3(CC2)C(OC)CN3c2cccc(F)c2)cc1F (centres undefined),–,"inconclusive: 70.8 µM [inhibitor, single point]",–
COc1ccc(CC(=O)Nc2ccc3c(c2)CN(Cc2ccc(OC)cc2OC)C(=O)C(C)O3)cc1 (centres undefined),–,"inconclusive: 50.1 µM [inhibitor, partial curve, poor fit]",–
CN(C)c1nc2c(c(=O)[nH]1)CCN(Cc1ccc(F)cc1Cl)CC2,inactive: -8.82%,–,–
CC(C)(C)c1ccc(C(=O)Nc2nc3c(s2)C[C@@H]2[C@](C)(CO)[C@H](O)CC[C@@]2(C)[C@@H]3CC(=O)N2CCC(C(N)=O)CC2)cc1,–,active: 28.2 µM,–
O=C([C@@H]1C[C@H](Oc2cccnc2)CN1C(=O)c1ccc2ccccc2n1)N1CCOCC1,inactive: -4.42%,–,–
CC(C)CN1CCC[C@H]1c1nc(-c2ccnc(NS(C)(=O)=O)c2)no1,–,"inconclusive: 50.1 µM [inhibitor, full curve, poor fit]",–
COCC(=O)N[C@@H]1CN(Cc2ccc(F)cc2Cl)C[C@H]1CO,inactive: -6.35%,–,–
COc1ccc(C)cc1NC(=O)N1CCC(Oc2ncccc2C(=O)N(C)C)C1 (centres undefined),inactive: 1.94%,–,–
O=C(CCCc1ccccc1)Nc1cccc(-c2nnc3n2CCCC3)c1,–,"inconclusive: 50.1 µM [inhibitor, partial curve, poor fit]",–
